This note sets out measurements from doi:10.1101/2022.08.03.502606 (bioRxiv, 2022).

The target of this experiment is T1, Atto-488-CaMKII^WT / Atto-594-CaMKII^WT (biotinylated CaMKII^WT-AviTag, fluorescently labelled at the … (human, UniProt Q9UQM7 6-478, biotin on the AviTag)); Atto-488 or Atto-594 maleimide dye on the SrtA recognition peptide (CLPETGG) joined to the N-terminus).
T1 construct: CaMKII alpha, human, lacking the first 5 residues, with a 30-residue linker; The two dye forms differ only by the fluorophore and are one molecule here; also called labeled CaMKII^WT; differentially-labeled CaMKII^WT; source: E. coli BL21, purified; biotinylated with BirA and labelled with SrtA in vitro; not shown: His6, N-terminal, cleaved; AviTag (biotinylated), C-terminal, kept; SrtA …
Put plainly: single molecule TIRF colocalization; Atto-488 and Atto-594 labelled CaMKII, 55 nM, activating conditions (150 nM CaM, 1 mM ATP, 2 mM MgCl2, 2 min), 25 mM Tris pH 8, 150 mM KCl, 1 mM TCEP; bound to NeutrAvidin coverslip; stage 37°C. To be noted: both partners purified.

B1: Atto-488 / Atto-594 labelled CaMKII^KD (biotinylated CaMKII^K42RD135N-AviTag, fluorescently labelled at the N-terminus with sortase) (enzyme)
chain: not shown
modifications: biotin on the AviTag; Atto-488 or Atto-594 maleimide dye on the SrtA recognition peptide (CLPETGG) joined to the N-terminus
notes: CaMKII alpha, human, lacking the first 5 residues, with a 30-residue linker; K42R and D135N; The two dye forms are one molecule here; also called differentially labeled CaMKII^KD; source: E. coli BL21, purified; biotinylated with BirA and labelled with SrtA in vitro; not shown: His6, N-terminal, cleaved; AviTag (biotinylated), C-terminal, kept; SrtA recognition peptide (CLPETGG) with Atto-488 or …
Consider B1, for which the binding result is listed as “binds”.
